Measurements: PubChem BioAssay AID1240 (Sanford-Burnham Center for Chemical Genomics, 2008)
Hit rate of the full screen: of about 50,000 compounds, about 800 (1.6%) showed an effect of 50% or more. Some of the results follow.

Each compound was assayed against Bcl-2-like protein 10 (Homo sapiens) (UniProt Q9HD36) (assay: Phenotype converters, Bcl-B/TR3 peptide binding displacement, primary biochemical FP (AID 1240;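 note: 0% = Bcl-B with tracer peptide and DMSO and 100% = tracer peptide lacking Bcl-B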)). Settings: GST-Bcl-B / FITC-TR3 peptide fluorescence polarization; stronger effect = higher value; compound at 3.75 mg/L.
Chain of UniProt Q9HD36 (Q9HD36 whole entry, looked up): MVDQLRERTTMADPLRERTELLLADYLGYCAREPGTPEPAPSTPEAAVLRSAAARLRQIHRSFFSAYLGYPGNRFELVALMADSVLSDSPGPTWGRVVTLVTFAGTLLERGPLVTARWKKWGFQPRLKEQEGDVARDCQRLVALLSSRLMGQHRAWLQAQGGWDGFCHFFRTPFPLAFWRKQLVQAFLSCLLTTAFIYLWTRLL

| SMILES | displacement [%] |
| --- | --- |
| COc1ccc(/C=C(/NC(=O)c2cc(OC)c(OC)c(OC)c2)C(=O)NC(C(=O)O)C(C)C)c(OC)c1 (stereo unspecified) | 2.5 |
| COc1cc(/C=c2\sc3nc4ccccc4n3c2=O)cc(Br)c1OCc1ccccc1F | 13.9 |
| COc1ccc(CC(=O)O/N=C(\N)c2ccncc2)cc1OC | 9.1 |
| C(=N\Nc1ncnc2sc3c(c12)CCC3)/c1ccco1 | -25.8 |
| O=C(/C=C/c1ccccc1Cl)NC1CC2CCC1C2 (stereo unspecified) | 1.4 |
| O=[N+]([O-])c1ccccc1S(=O)(=O)Oc1ccccc1/C=N/n1cnnc1 | -11.3 |
| O=C(Nc1cccc(Cl)c1Cl)C(O)(c1ccccc1)c1ccccc1 | 2.6 |
| Cc1ccc(N2CCSC2c2ccco2)cc1 (stereo unspecified) | 1.4 |
| COc1ccc(C(=O)NNC(=O)c2ccccc2[N+](=O)[O-])cc1 | -4.4 |
| COc1ccc(C(C)=O)cc1N1C(=O)C2C3C=CC(C3=C(c3ccccc3)c3ccccc3)C2C1=O (stereo unspecified) | 2.3 |
| Cc1nn2c3ccccc3n(C)c2c1C(=O)NN | -4.4 |
| Cc1[nH]c2c(Cl)cccc2c(=O)c1CN1CCN(C)CC1 | 0.6 |
| CCc1cc(OCCOCCN2CCC(C)CC2)ccc1Cl | -4.1 |
| Cc1ccc(/C=N/n2c(C)nnc2C)cc1 | -6 |
| Cc1ccc(C(=O)Nc2cccc([N+](=O)[O-])c2)o1 | 11.2 |
| CC12c3ccccc3C(C)(c3ccccc31)C1C(=O)N(c3ccc(Cl)c(C(=O)O)c3)C(=O)C12 (stereo unspecified) | 6.1 |
| COc1ccc(C2CC(c3ccccc3)=NN2c2ccc([N+](=O)[O-])cc2)cc1 (stereo unspecified) | -6.4 |
| NC(=O)c1c(NC(=O)c2cccc(Oc3ccccc3)c2)sc2c1CCCC2 | -4.2 |
| CCn1c2c(c3cc(C)ccc31)CCCC2=O | 9.5 |

| SMILES | displacement [%] |
| --- | --- |
| O=C(Nc1ccc(Cl)cc1)Oc1ccccc1[N+](=O)[O-] | 0 |
| Cc1c(C(=O)NCCO)c(-c2ccccc2)nn1-c1ccccc1 | 14.9 |
| Cc1cc(C)c2nc3s/c(=C\c4cc5c(cc4[N+](=O)[O-])OCO5)c(=O)n3c2c1 | -4.7 |
| Cc1ccc(N(CC(=O)O)S(C)(=O)=O)cc1Cl | -3.5 |
| CCOC(=O)C1=C(O)/C(=C/c2cc(OC)c(OC)c(OC)c2)SC1=Nc1ccccc1 | -14.2 |
| COc1ccc(C(CC(=O)c2ccc(Cl)cc2)Nc2ccc(Br)cc2)cc1 (stereo unspecified) | -7.3 |
| C=CCOCC(O)CSCc1ccc(Cl)cc1 (stereo unspecified) | -1.9 |
| COC(=O)c1ccc(NC(NC=O)C(Cl)(Cl)Cl)cc1 (stereo unspecified) | 3 |
| COc1cc(/C=C/c2[nH]c(=O)[nH]c(=O)c2[N+](=O)[O-])cc(Br)c1OCc1ccccc1 | 15.6 |
| O=C1/C(=C\c2ccccc2OS(=O)(=O)c2ccccc2[N+](=O)[O-])SC(=S)N1c1ccccc1 | 2.3 |
| O=C(/C=C\c1ccccc1)Nc1cccc(NC(=O)c2ccco2)c1 | 5.2 |
| O=S(=O)(Cc1ccccc1)c1nc2ccccc2n1Cc1ccc(Cl)cc1 | 1.8 |
| O=C(c1cc(F)c(F)cc1Cl)N1CCN(c2cc(N3CCCCC3)c(F)cc2[N+](=O)[O-])CC1 | -9.6 |
| O=C(c1ccc(Cl)c(Cl)c1)N1CCN(C/C=C/c2ccccc2)CC1 | -3.2 |
| COc1ccc2oc(-c3ccccc3)c(C(=O)Nc3nccs3)c2c1 | 5.4 |
| Cc1cc(C)nc(SCC(=O)Nc2ccc(Cl)c(Cl)c2)n1 | 4 |
| CN(C)CCCNC(=O)c1ccccc1Oc1ccccc1 | -3.1 |
| CS(=O)(=O)N(CC(=O)Nc1cccc(Br)c1)c1ccc(Oc2ccccc2)cc1 | 1.9 |
| CN(C)c1ccc(/C=C2\SC(=S)NC2=O)cc1Br | 7 |

| SMILES | displacement [%] |
| --- | --- |
| Cc1cc(Cl)ccc1NS(=O)(=O)c1ccc(Cl)cc1 | -7.4 |
| CCCC(=O)Nc1cccc(NC(=S)NC(=O)c2ccccc2Cl)c1 | -6.3 |
| Oc1ccc(/C=N/Nc2cc(N3CCOCC3)nc(N3CCOCC3)n2)cc1 | 25 |
| COc1ccc(C(=O)CSc2nc(C)cc(C)n2)cc1[N+](=O)[O-] | 12.6 |
| CCCCNC(=S)Nc1ccc(Cl)cc1Cl | -4.5 |
| C=CCN1C(=O)/C(=C/c2ccc(Br)cc2)S/C1=N\c1nnc(CC)s1 | 3.1 |
| Cc1cccc(C)c1NC(=O)CN(c1ccc(F)cc1)S(=O)(=O)c1ccccc1 | -11.5 |
| COc1ccc(/C=C/C(=O)NC(=S)Nc2ccc(S(=O)(=O)N=C(N)N)cc2)cc1 | 9.6 |
| O=C(Nc1ccccc1I)c1cc(-c2ccccc2)nc2ccccc12 | -3.4 |
| O=C(N/N=C\c1c(Cl)cccc1Cl)c1cnccn1 | -7.9 |
| CCOC(=O)/C(C#N)=C/Nc1ccccn1 | -4.8 |
| CC1CCN(c2cc(N3CCN(C(=O)c4cccc(F)c4F)CC3)c([N+](=O)[O-])cc2F)CC1 | -11.1 |
| S=C(NCCN1CCOCC1)Nc1ccccc1 | -8.1 |
| COc1ccc(OC)c(/C=C2/C(=O)ON=C2c2ccccc2)c1 | 10.5 |
| Cc1ccc(-c2[nH]n3c(=O)c(C)c(C)nc3c2C)cc1 | -10.4 |
| O=C(NN1C(=O)c2ccccc2C1=O)c1ccccc1Br | 10.4 |
| CCC(NC(=O)c1ccccc1NC(=O)c1ccco1)C(=O)O (stereo unspecified) | 0 |
| O=C(Nc1cccc(C(=O)c2ccccc2)c1)c1ccc(Cl)cc1 | 16.1 |
